Measured values reported in article PMC4081100.
The entries are a selection whose mix differs from that of the whole data set. For part of these data: At the low end of the ranking the order means little. The list shows a part of the results. For part of these data: Construct or isoform of the protein are uncertain.

Tests used:
Assay in all cases: universal protein binding microarray (PBM)
Settings in all cases: transcription factors of Arabidopsis thaliana; high values mean tight binding; most listed sequences are background and not binding sites; double strand, one strand shown
GST-ANAC092(1-176) = molecular target: T1, GST-ANAC092(1-176) (UniProt Q9FKA0)
T1 sequence: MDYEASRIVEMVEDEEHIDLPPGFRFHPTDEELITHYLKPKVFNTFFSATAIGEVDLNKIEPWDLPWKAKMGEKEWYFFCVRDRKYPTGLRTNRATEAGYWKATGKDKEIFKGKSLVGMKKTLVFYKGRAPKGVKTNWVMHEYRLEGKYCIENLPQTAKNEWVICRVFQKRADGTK

GST-NTL6(1-168) = GST-NTL6(1-168) (UniProt Q9SCK6)
GST-ANAC019 NAC domain = molecular target: T2, GST-ANAC019 NAC domain (UniProt Q9C932)
T2 sequence: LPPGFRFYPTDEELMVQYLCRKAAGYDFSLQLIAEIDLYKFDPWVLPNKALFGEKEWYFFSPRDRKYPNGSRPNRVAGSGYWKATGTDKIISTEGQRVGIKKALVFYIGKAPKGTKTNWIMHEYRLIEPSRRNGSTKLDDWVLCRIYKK

GST-ANAC055(1-171) = molecular target: T3, GST-ANAC055(1-171) (UniProt Q9LDY8)
T3 sequence: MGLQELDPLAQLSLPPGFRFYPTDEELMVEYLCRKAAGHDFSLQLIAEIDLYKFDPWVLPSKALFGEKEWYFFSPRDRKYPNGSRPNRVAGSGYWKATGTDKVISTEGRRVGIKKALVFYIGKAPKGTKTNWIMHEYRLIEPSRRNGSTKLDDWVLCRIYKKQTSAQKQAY

GST-ATAF1 NAC domain = molecular target: T4, GST-ATAF1 NAC domain (UniProt Q39013)
T4 sequence: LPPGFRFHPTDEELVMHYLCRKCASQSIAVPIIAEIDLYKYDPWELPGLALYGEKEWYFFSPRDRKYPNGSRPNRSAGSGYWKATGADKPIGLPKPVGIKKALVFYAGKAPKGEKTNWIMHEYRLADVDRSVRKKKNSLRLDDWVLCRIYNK

[1] = molecular target: T5, GST-ANAC092(1-285) full length (UniProt Q9FKA0)
T5 sequence: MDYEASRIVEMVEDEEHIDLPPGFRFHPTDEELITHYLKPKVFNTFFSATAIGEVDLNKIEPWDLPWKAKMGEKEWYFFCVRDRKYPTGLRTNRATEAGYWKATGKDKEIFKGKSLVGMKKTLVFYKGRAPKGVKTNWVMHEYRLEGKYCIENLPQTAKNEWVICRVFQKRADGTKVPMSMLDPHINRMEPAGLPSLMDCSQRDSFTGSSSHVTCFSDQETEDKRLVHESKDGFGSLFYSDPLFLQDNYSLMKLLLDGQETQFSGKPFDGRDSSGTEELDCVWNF

GST-NAP(1-166) = molecular target: T6, GST-NAP(1-166) (UniProt O49255)
T6 sequence: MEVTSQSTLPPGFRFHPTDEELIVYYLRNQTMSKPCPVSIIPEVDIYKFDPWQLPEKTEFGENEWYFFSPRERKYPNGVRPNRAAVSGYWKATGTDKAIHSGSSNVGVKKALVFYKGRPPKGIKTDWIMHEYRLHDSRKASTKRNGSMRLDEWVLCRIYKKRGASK

GST-NST2(1-184) = molecular target: T7, GST-NST2(1-184) (UniProt Q9M274)
T7 sequence: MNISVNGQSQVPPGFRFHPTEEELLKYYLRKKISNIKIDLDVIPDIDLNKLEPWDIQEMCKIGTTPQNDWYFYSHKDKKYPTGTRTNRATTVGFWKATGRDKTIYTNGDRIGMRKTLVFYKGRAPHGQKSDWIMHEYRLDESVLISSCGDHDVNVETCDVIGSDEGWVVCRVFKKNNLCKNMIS

GST-NTL8 NAC domain = molecular target: T8, GST-NTL8 NAC domain (UniProt Q9XIN7)
T8 sequence: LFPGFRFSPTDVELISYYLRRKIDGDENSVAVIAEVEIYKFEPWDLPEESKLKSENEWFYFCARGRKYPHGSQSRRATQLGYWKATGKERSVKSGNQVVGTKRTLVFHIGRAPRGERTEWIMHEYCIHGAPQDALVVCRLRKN

GST-SND1(1-203) = molecular target: T9, GST-SND1(1-203) (UniProt Q9LPI7)
T9 sequence: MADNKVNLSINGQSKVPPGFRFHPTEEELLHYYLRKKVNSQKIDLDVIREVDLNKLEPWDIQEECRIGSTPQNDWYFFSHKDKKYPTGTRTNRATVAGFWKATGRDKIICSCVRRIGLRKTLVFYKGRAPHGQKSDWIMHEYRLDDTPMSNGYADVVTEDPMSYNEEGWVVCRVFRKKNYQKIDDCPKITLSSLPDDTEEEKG

GST-VND3 NAC domain = molecular target: T10, GST-VND3 NAC domain (UniProt Q9FH59)
T10 sequence: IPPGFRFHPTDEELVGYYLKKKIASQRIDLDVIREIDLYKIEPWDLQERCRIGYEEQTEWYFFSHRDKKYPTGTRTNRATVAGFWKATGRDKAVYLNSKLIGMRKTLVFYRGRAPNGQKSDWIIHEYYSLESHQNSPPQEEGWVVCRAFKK

GST-VND7 NAC domain = molecular target: T11, GST-VND7 NAC domain (UniProt Q9C8W9)
T11 sequence: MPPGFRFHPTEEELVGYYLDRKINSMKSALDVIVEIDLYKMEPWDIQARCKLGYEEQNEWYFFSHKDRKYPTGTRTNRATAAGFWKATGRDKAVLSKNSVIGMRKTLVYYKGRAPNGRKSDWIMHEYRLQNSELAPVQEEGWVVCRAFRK

[2] = molecular target: T12, GST-VOZ2 (Arabidopsis thaliana) (UniProt Q9SLB9)
T12 sequence: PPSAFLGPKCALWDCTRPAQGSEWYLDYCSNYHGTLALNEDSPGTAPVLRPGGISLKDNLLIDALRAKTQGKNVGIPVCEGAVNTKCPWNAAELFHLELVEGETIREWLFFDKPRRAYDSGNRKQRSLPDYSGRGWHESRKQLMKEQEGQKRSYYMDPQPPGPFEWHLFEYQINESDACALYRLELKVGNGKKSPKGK

| Sequence | binding signal (GST-ANAC092(1-176)) [E-score] | binding signal (GST-NTL6(1-168)) [E-score] | binding signal (GST-ANAC019 NAC domain) [E-score] | binding signal (GST-ANAC055(1-171)) [E-score] | binding signal (GST-ATAF1 NAC domain) [E-score] | binding signal [1] [E-score] | binding signal (GST-NAP(1-166)) [E-score] | binding signal (GST-NST2(1-184)) [E-score] | binding signal (GST-NTL8 NAC domain) [E-score] | binding signal (GST-SND1(1-203)) [E-score] | binding signal (GST-VND3 NAC domain) [E-score] | binding signal (GST-VND7 NAC domain) [E-score] | binding signal [2] [E-score] |
| --- | --- | --- | --- | --- | --- | --- | --- | --- | --- | --- | --- | --- | --- |
| CGACGACC | -0.135 | -0.172 | -0.113 | -0.218 | -0.255 | -0.174 | -0.0654 | -0.215 | -0.0897 | -0.0663 | -0.168 | -0.171 | -0.0986 |
| ATGACCGG | -0.274 | -0.0823 | -0.142 | -0.211 | -0.192 | -0.0603 | 0.00103 | -0.187 | -0.207 | -0.139 | -0.231 | -0.199 | -0.118 |
| CCAGGTCA | -0.119 | -0.127 | -0.0547 | -0.261 | -0.269 | -0.283 | -0.133 | -0.176 | -0.0765 | -0.227 | -0.27 | -0.181 | -0.157 |
| CGGTCTTC | -0.035 | -0.0716 | -0.0268 | -0.206 | -0.274 | -0.0549 | -0.108 | -0.131 | -0.0917 | -0.197 | -0.115 | -0.0194 | -0.245 |
| TATGACCA | -0.0882 | -0.0443 | -0.0807 | -0.143 | -0.114 | -0.0497 | -0.00856 | -0.194 | -0.0429 | -0.137 | 0.117 | -0.0257 | -0.104 |
| CCGAGTCA | -0.2 | -0.271 | -0.0927 | -0.184 | -0.132 | -0.15 | -0.0387 | -0.187 | -0.00411 | -0.119 | -0.128 | -0.142 | -0.116 |
| GTCTTTGA | -0.012 | -0.0485 | 0.00829 | -0.0616 | -0.0642 | -0.0116 | -0.00479 | 0.0282 | -0.0197 | -0.0811 | -0.0713 | 0.00671 | -0.16 |
| GCTCTGAC | -0.0111 | -0.137 | -0.013 | -0.105 | -0.133 | -0.166 | -0.035 | -0.0721 | -0.0778 | -0.00724 | -0.151 | -0.0672 | -0.0618 |
| CCTTGACC | -0.0924 | -0.0916 | -0.0243 | -0.139 | -0.133 | -0.168 | -0.112 | -0.126 | -0.0252 | -0.0649 | -0.234 | -0.177 | -0.0874 |
| GTAGGTCA | -0.00958 | 0.0465 | 0.129 | 0.0231 | 0.0257 | -0.122 | -0.0203 | -0.0508 | 0.0647 | -0.0864 | -0.0467 | -0.0325 | -0.0017 |
| CATTGACC | -0.000285 | 0.00504 | 0.00368 | -0.0766 | -0.084 | -0.122 | -0.0046 | -0.0993 | -0.0557 | -0.0933 | -0.163 | -0.131 | 0.0718 |
| ATCGGTCA | -0.133 | -0.134 | -0.217 | -0.0912 | -0.0954 | -0.131 | 0.00931 | -0.11 | -0.119 | -0.144 | -0.0835 | -0.174 | -0.074 |
| CTCTGACC | -0.112 | -0.0495 | -0.0729 | -0.153 | -0.193 | -0.197 | -0.088 | -0.0647 | 0.00462 | -0.0615 | -0.148 | -0.0609 | -0.078 |
| TGACCTCA | -0.126 | -0.0831 | -0.0715 | -0.132 | -0.0737 | -0.113 | -0.155 | -0.155 | -0.0665 | -0.17 | -0.0627 | 0.000465 | -0.136 |
| AGTCGTCG | -0.113 | -0.155 | -0.0479 | -0.113 | -0.16 | -0.255 | 0.119 | -0.0379 | -0.0601 | -0.214 | -0.148 | -0.0928 | -0.197 |
| CCGGTCAA | -0.0225 | -0.0372 | 0.0195 | -0.139 | -0.0856 | -0.132 | -0.0504 | -0.0238 | 0.00981 | -0.024 | -0.188 | -0.032 | -0.0138 |
| ATTTGACC | -0.0376 | -0.0389 | -0.11 | 0.079 | 0.00561 | -0.087 | -0.0283 | -0.0162 | -0.141 | -0.113 | -0.00194 | -0.0905 | 0.0742 |
| GCCGTCAA | 0.0245 | -0.017 | 0.0494 | 0.0159 | 0.00399 | -0.11 | 0.0427 | -0.0657 | -0.0694 | 0.0442 | -0.0427 | -0.0913 | 0.0354 |
| ATTGACCC | -0.081 | -0.0702 | -0.0319 | -0.104 | -0.0192 | -0.035 | -0.00515 | 0.0177 | -0.0325 | -0.0375 | -0.0633 | -0.025 | 0.121 |
| GTCAGACA | -0.0424 | -0.138 | -0.0509 | -0.0161 | 0.00933 | -0.0124 | 0.0483 | -0.119 | -0.13 | -0.148 | -0.0218 | -0.137 | -0.189 |
| GGTCGTCA | -0.101 | -0.175 | 0.0436 | -0.112 | -0.0578 | -0.0659 | -0.0561 | -0.131 | -0.0311 | -0.124 | -0.0884 | -0.0993 | -0.0239 |
| AAGACCAG | -0.0526 | -0.119 | -0.043 | -0.126 | -0.126 | -0.242 | -0.174 | -0.014 | -0.131 | -0.0962 | -0.179 | -0.143 | -0.0299 |
| CTGACTTA | -0.0863 | 0.195 | -0.0879 | -0.0487 | -0.163 | -0.0235 | -0.0554 | 0.0499 | -0.121 | -0.0138 | -0.0115 | -0.097 | -0.12 |
| CGGAGTCA | -0.0437 | -0.0351 | -0.00177 | -0.00443 | -0.174 | -0.166 | -0.133 | 0.027 | -0.056 | -0.00842 | -0.068 | -0.153 | -0.0476 |
| TGAGTCAA | -0.0222 | -0.0353 | 0.0445 | -0.148 | -0.0618 | – | -0.0903 | -0.0322 | -0.0301 | 0.0422 | 0.0214 | -0.0481 | 0.0123 |
